Reference: the supplement of paper PMC3334620
In all, about 33,000 sequences were measured (“E-score (-0.5 to 0.5)”: median about -0.056, highest 2% from about 0.38 on). The list shows a part of the results.

Target: Stb4 (UniProt P50104)
Assay: PBM E-score (8-mer binding enrichment) (E-score (-0.5 to 0.5)); higher = stronger / more preferred TF binding; most listed sequences are background and not binding sites
Conditions: protein concentration: 200 nM; construct: GST-DNA-binding domain
Outline: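 E-scores (a modified Wilcoxon-Mann-Whitney statistic) were assigned by the Universal PBM Analysis Suite to every ungapped eight-base word pooled with its reverse complement. The input came from universal all-10-mer Agilent arrays made double-stranded by primer extension and probed with GST-tagged yeast transcription factors at about 100-200 nM. Fluorescent anti-GST detected bound protein, and masliner normalised the scans.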

Sequence	PBM E-score
AACGAATC	0.143
TACATGCA	-0.209
CCCTTCCA	-0.11
ACGATATC	-0.0902
GATTGAAC	-0.0809
ACCCAACT	-0.227
AATTGTTA	-0.107
CAATAAAC	0.0616
AACCCCGC	-0.0105
CAAAAACA	-0.0724
AATGCTCG	0.031
CCCCGCAA	0.0416
CCACCTTC	-0.0877
GGTTCGAA	-0.0143
CAGTGAGG	-0.244
CCTCTCAA	-0.0748
AGTCCCAT	-0.202
TCTGTCCA	0.0331
CGGATTTC	0.318
AGAGTTTC	0.0683
GAACCCTA	-0.0858
CAGGAGTA	-0.0722
AAATCTCG	0.202
TCAGGGGA	-0.27
GTCCGCAC	-0.045

Sequence	PBM E-score
CAATTGCA	-0.0781
GATGAGCA	-0.0393
ACGGACGT	0.0696
CACAAAGC	-0.102
AATAGAAA	-0.0832
ACAAGCAG	-0.159
CACTTGCG	-0.102
ATGTGCGC	-0.117
AGGCGTAG	-0.15
CCCGACCA	0.282
CGCTCGGC	0.412
CAGTGGAG	-0.0704
CGGCTTCA	0.23
TATCTACA	0.0195
CCGCCATC	0.0682
GAGGTAAC	-0.0452
ACAAGAAC	0.101
GTTGATTA	0.0444
CAGCACAA	-0.0332
ACGGGGCT	-0.0557
CTAATCAG	0.00472
ATACTGTG	-0.131
ATTACTCG	-0.0138
ATCATTAC	-0.0186
ATAGTCGC	-0.076

Sequence	PBM E-score
CAACCCTA	-0.0513
CGTGGCTC	-0.169
ATGTGAGA	-0.03
ACCACTCA	-0.272
CCGCATTC	0.177
CCTCGCCC	-0.0701
AAGCCAGC	-0.154
CCGGCCTA	0.167
CTTCTATC	-0.0159
CGCGGCCA	0.0292
AGAACTTG	-0.161
AATGGCTG	-0.0957
GTAGCTTA	-0.238
CATCCTCC	0.0552
ATACTCAC	-0.04
CGTACATC	0.0586
ATGAGGGG	-0.126
GAGTAAGC	-0.0417
ACACATCG	-0.144
CATAAACG	-0.0894
ATAACGGC	0.108
CTGTCGCA	-0.0387
ATTGCTTA	-0.0483
ACCAGAAT	-0.109
ATTTGCAC	-0.265

Sequence	PBM E-score
CAGCTTAG	-0.18
GGCGTCAA	-0.0556
ACCCGCAT	0.275
ATTTTGTG	0.0933
GCCCGCCA	0.143
CCACAGCG	-0.122
GCACATGC	0.0181
GATTAGAC	0.0134
CCGGATTA	0.319
AGCGGACC	0.101
GGTGCTAC	-0.152
CTCTACAA	-0.115
GGGTCAGA	-0.126
AGATACAA	-0.131
CACCGAGA	0.222
CCAACTGC	-0.0394
AAGCGGGA	0.181
ACAGCGGA	0.123
AACCGCAC	-0.0246
CCTTGATC	-0.0616
CGCCCCAG	0.011
ACATGAAG	-0.122
CATCATTA	0.0196
CACAATGG	-0.0734
GAGCATGC	-0.106

Sequence	PBM E-score
AGCATATA	0.0336
AGCGGCGG	0.21
TTATATAA	0.0856
CTAATATC	0.0519
GCCAGATA	-0.0105
CCGTCAGC	0.162
ACCATCAA	-0.197
CTCACTAA	-0.092
CGCTCAGA	-0.0204
CCTTCGGA	0.474
AACTGCCA	-0.263
AGCGCATA	-0.108
CTTAGGTC	0.0896
ATCCCACG	-0.0952
AGCATACG	-0.0677
CCTATAGC	-0.281
ACGTCATA	-0.0342
GATGGCAA	0.061
GGACGGAC	0.232
AGTCCTTG	-0.132
CGCCGCTA	0.0587
AGTGCCCA	-0.0734
TAAAGCTA	-0.339
GCAAGAAA	0.0868
ATCGTATC	0.0416

Sequence	PBM E-score
AACTGCCG	0.342
CGCAAGAA	0.0756
CCGAGACG	0.41
AATACCGG	0.307
GCACAGTA	-0.152
CGACTTTC	0.119
CATGGGAC	-0.24
AACGGTCA	0.0935
GCAGGGCC	-0.107
TAGATACA	-0.29
AAGGCGTC	-0.0387
GTCGAGGA	-0.239
ACCATGCC	0.0929
AACCACAG	-0.177
CAGGCCGG	0.0967
GCCGTACC	0.283
ACGAAATA	-0.111
ATCGTCAG	-0.252
ATCACTGA	-0.231
CTACTGCA	-0.329
CGCCTGTC	-0.141
CAGTCAGG	-0.175
CAAGAGAG	-0.164
GAAATATA	0.147
CCTCGCAG	-0.233

Sequence	PBM E-score
ACGCCAAT	-0.0738
ATTGTGAG	-0.0285
AATAGACG	-0.0479
CAGTCCGA	0.308
CCTGCCCA	-0.093
CCGTGGAG	0.155
CTGTAAAG	-0.206
CATGCGAA	-0.00765
CCCTCATC	-0.0808
CAGAAACA	-0.174
GCAAACTA	-0.232
AATCCGAT	0.368
CCAGTGTC	-0.166
GGACTGAA	0.0777
ACGGAATG	0.277
AGCGGTTC	-0.0178
ACACCTAA	-0.0971
CTAAATGA	-0.203
CCGCGGGC	0.243
AAGCCCTC	-0.11
TCATAAAA	-0.0867
AAAGTGGT	-0.105
ACACATAC	-0.126
ATCAAGCC	-0.0912
CAAAACGG	0.0905

Sequence	PBM E-score
AAACCGAC	0.185
GCTCTTCC	0.163
CCTAACCG	0.13
ATCTCTGA	-0.221
ATTCATCG	-0.0143
ACACTGAG	-0.128
CGTGCCGC	0.0918
ACTTGAAG	-0.201
AGAATCAT	-0.207
CGGCCTTA	0.152
ACAAGTGC	-0.181
CTCGAGCA	-0.0413
CTTCATCC	0.136
AACACCCT	-0.129
ACAGATGA	-0.0559
AAACCAGA	-0.134
ACGGGGAA	0.172
AGCGATGC	-0.183
ATTGGTAA	-0.137
GCGTGGCC	-0.0801
AAGTTGAC	-0.121
GGAGCAAC	0.0986
ACAGCGCT	0.00967
CATCACCC	0.123
GTGAAAAC	0.0408

Sequence	PBM E-score
AGCGAAGC	-0.147
CAAAAGCA	-0.108
AAATCCGG	0.332
GGGAAACC	0.207
GAACCGAA	0.397
TTAATCAA	-0.128
GTACTATA	-0.0645
CCGAGACC	0.431
CAGGAAAC	-0.167
AACTTACG	-0.0101
GCTATTAC	-0.173
GGTCAGTA	-0.018
GGATGCCA	-0.0267
GGGAATAC	0.148
CCACTTGA	-0.0304
ACAGTCTA	-0.211
TAGCACTA	-0.203
CGGGGCTC	0.0801
AGGTAAAT	-6e-05
